Reference: the supplement of paper PMC12067230
This is a noisy data set.

test: amyloid nucleation score relative to library mode (yeast Sup35 reporter selection) (log enrichment difference); higher = more amyloid nucleation; sequences are the first 22 residues of the Bri2 peptide extended by up to 12 random residues; conditions: random library (experiment): 1;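 active = nucleation score significantly above 0 at FDR 0.05; inactive = not significantly above 0 or absent from output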
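Also: [psi-pin-] Saccharomyces cerevisiae expressing SupN fusions, induced by 100 µM Cu2SO4, selected 7 d at 30 °C without adenine and uracil, scored by deep sequencing of output versus input.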

Sequence	amyloid nucleation score
EASNCFAIRHFENKFAVETLICLCKRA	4.42
EASNCFAIRHFENKFAVETLICLCKRDVYGVTSR	3.92
EASNCFAIRHFENKFAVETLICLCLCVLKSIVPA	inactive
EASNCFAIRHFENKFAVETLICLCLSQEISPVTR	6.43
EASNCFAIRHFENKFAVETLICLCMVFKLMNCF	0.944
EASNCFAIRHFENKFAVETLICLCMVP	-0.399
EASNCFAIRHFENKFAVETLICLCPFGVTCYLLA	1.46
EASNCFAIRHFENKFAVETLICLCPVQFKYAAQG	4.94
EASNCFAIRHFENKFAVETLICLCRARLLTVFKV	inactive
EASNCFAIRHFENKFAVETLICLCRDRSLSTYTP	3.14
EASNCFAIRHFENKFAVETLICLCRGMRKLTSRL	-0.595
EASNCFAIRHFENKFAVETLICLCRRDKIRRAIR	inactive
EASNCFAIRHFENKFAVETLICLCRVIACESGTR	inactive
EASNCFAIRHFENKFAVETLICLCSPDVAHRPCL	7.07
EASNCFAIRHFENKFAVETLICLCSPWRVWFRAV	-0.0755
EASNCFAIRHFENKFAVETLICLCTAPDRYGSLL	inactive
EASNCFAIRHFENKFAVETLICLCTATQLFGLFA	inactive
EASNCFAIRHFENKFAVETLICLCVAPGERPWRV	7.13
EASNCFAIRHFENKFAVETLICLCVNAVILSRTV	inactive
EASNCFAIRHFENKFAVETLICLCVVASMHAWVI	inactive
EASNCFAIRHFENKFAVETLICLCYCVSETRSMP	5.39
EASNCFAIRHFENKFAVETLICLD	inactive
EASNCFAIRHFENKFAVETLICLDALVVSANFWE	1.99
EASNCFAIRHFENKFAVETLICLDAMIVEAKRSE	inactive

Sequence	amyloid nucleation score
EASNCFAIRHFENKFAVETLICLDAQYRQVTGEA	inactive
EASNCFAIRHFENKFAVETLICLDEMDSRISGGT	inactive
EASNCFAIRHFENKFAVETLICLDH	inactive
EASNCFAIRHFENKFAVETLICLDHISNRGEC	inactive
EASNCFAIRHFENKFAVETLICLDKYT	inactive
EASNCFAIRHFENKFAVETLICLDLLLMNSSKTA	inactive
EASNCFAIRHFENKFAVETLICLDLLSKQVAIRG	inactive
EASNCFAIRHFENKFAVETLICLDLMSPQRKGRC	2.23
EASNCFAIRHFENKFAVETLICLDLTCVLALGWT	-0.146
EASNCFAIRHFENKFAVETLICLDLVHGCWTRSL	2.67
EASNCFAIRHFENKFAVETLICLDMGDWRNTCCW	8.3
EASNCFAIRHFENKFAVETLICLDMLWGP	1.28
EASNCFAIRHFENKFAVETLICLDNFNRRYSHAG	3.85
EASNCFAIRHFENKFAVETLICLDPCALLMWQGS	5.8
EASNCFAIRHFENKFAVETLICLDQEYGEKRWNK	inactive
EASNCFAIRHFENKFAVETLICLDQRADYLPFK	3.01
EASNCFAIRHFENKFAVETLICLDQSRGAMEWYF	5.16
EASNCFAIRHFENKFAVETLICLDR	inactive
EASNCFAIRHFENKFAVETLICLDRA	inactive
EASNCFAIRHFENKFAVETLICLDRWVYTESGWV	3.05
EASNCFAIRHFENKFAVETLICLDSEKDTYCLVS	inactive
EASNCFAIRHFENKFAVETLICLDSSHRS	-0.425
EASNCFAIRHFENKFAVETLICLDVAAYREEVPG	inactive
EASNCFAIRHFENKFAVETLICLDVKVGDHDRVS	inactive

same assay, conditions: random library (experiment): 2

Sequence	amyloid nucleation score
EASNCFAIRHFENKFAVETLICLCKRFIQLAMRK	inactive
EASNCFAIRHFENKFAVETLICLCLRTYCVMGTL	inactive
EASNCFAIRHFENKFAVETLICLCLVCVYAVLYF	inactive
EASNCFAIRHFENKFAVETLICLCLVLSCRVLNS	inactive
EASNCFAIRHFENKFAVETLICLCMIISRETISA	0.844
EASNCFAIRHFENKFAVETLICLCMLILANDD	inactive
EASNCFAIRHFENKFAVETLICLCNVLYVLVC	inactive
EASNCFAIRHFENKFAVETLICLCQAFQIKYFEG	0.821
EASNCFAIRHFENKFAVETLICLCRKAESDRYGA	7.47
EASNCFAIRHFENKFAVETLICLCRKFELFYRVW	-0.56
EASNCFAIRHFENKFAVETLICLCRRVILIRSMR	inactive
EASNCFAIRHFENKFAVETLICLCRSLAFRHV	3.99
EASNCFAIRHFENKFAVETLICLCSVYISSMSFY	inactive
EASNCFAIRHFENKFAVETLICLCTVCVAYKFSA	inactive
EASNCFAIRHFENKFAVETLICLCVSFHIKEDYN	4.63
EASNCFAIRHFENKFAVETLICLCVVSSYPYGRF	inactive
EASNCFAIRHFENKFAVETLICLCVVYTGLDSSI	inactive
EASNCFAIRHFENKFAVETLICLCWSEKTRSLWA	4.69
EASNCFAIRHFENKFAVETLICLCYERPADGV	4.95
EASNCFAIRHFENKFAVETLICLCYIQGVSIHLR	inactive

Sequence	amyloid nucleation score
EASNCFAIRHFENKFAVETLICLCYLFGRSGYVI	inactive
EASNCFAIRHFENKFAVETLICLDAWGLKLPVSE	0.683
EASNCFAIRHFENKFAVETLICLDD	inactive
EASNCFAIRHFENKFAVETLICLDGIG	inactive
EASNCFAIRHFENKFAVETLICLDGRQSCHFEE	2.41
EASNCFAIRHFENKFAVETLICLDITRHMYSSYR	4.91
EASNCFAIRHFENKFAVETLICLDKRPTLQQWDR	inactive
EASNCFAIRHFENKFAVETLICLDKYCSGWTEFR	2.02
EASNCFAIRHFENKFAVETLICLDLV	inactive
EASNCFAIRHFENKFAVETLICLDMCYCLVVISL	inactive
EASNCFAIRHFENKFAVETLICLDMNAYYCNHRV	3.93
EASNCFAIRHFENKFAVETLICLDMVSLTLNWSG	inactive
EASNCFAIRHFENKFAVETLICLDMWL	inactive
EASNCFAIRHFENKFAVETLICLDMYDNFVSRPS	2.28
EASNCFAIRHFENKFAVETLICLDN	inactive
EASNCFAIRHFENKFAVETLICLDPRSCRRVPPR	-0.0198
EASNCFAIRHFENKFAVETLICLDRMNSLIRVFE	inactive
EASNCFAIRHFENKFAVETLICLDSHSWAMGRSL	3.4
EASNCFAIRHFENKFAVETLICLDVMSKWTRYER	inactive

same assay, conditions: random library (experiment): 3

Sequence	amyloid nucleation score
EASNCFAIRHFENKFAVETLICLCL	7.53
EASNCFAIRHFENKFAVETLICLCLPAGRRRPGG	6.96
EASNCFAIRHFENKFAVETLICLCLRNRFIERRV	inactive
EASNCFAIRHFENKFAVETLICLCPFGIDRERVG	8.81
EASNCFAIRHFENKFAVETLICLCPSLPNCLMLC	inactive
EASNCFAIRHFENKFAVETLICLCPTGLMDRPEC	8.43
EASNCFAIRHFENKFAVETLICLCQRPHIRDCCG	1.19
EASNCFAIRHFENKFAVETLICLCRERDCGDPLW	3.83
EASNCFAIRHFENKFAVETLICLCRHLTNRNRHG	inactive
EASNCFAIRHFENKFAVETLICLCRVENMAKLWR	inactive
EASNCFAIRHFENKFAVETLICLCRVYGSHCVTV	inactive
EASNCFAIRHFENKFAVETLICLCRYTSLFRTGD	inactive
EASNCFAIRHFENKFAVETLICLCSAYAYNRWYS	inactive
EASNCFAIRHFENKFAVETLICLCTLVRDVRFIG	inactive
EASNCFAIRHFENKFAVETLICLCVALTDRRSAL	inactive
EASNCFAIRHFENKFAVETLICLCVERRRMGRLW	4.82

Sequence	amyloid nucleation score
EASNCFAIRHFENKFAVETLICLCVSLGVFECWA	inactive
EASNCFAIRHFENKFAVETLICLCVVFTHWSPTY	inactive
EASNCFAIRHFENKFAVETLICLCVVGVNTIDLR	4.88
EASNCFAIRHFENKFAVETLICLCYEQKFTGSLM	2.26
EASNCFAIRHFENKFAVETLICLDATFVPNQSRA	0.624
EASNCFAIRHFENKFAVETLICLDCG	5.84
EASNCFAIRHFENKFAVETLICLDDVGWVVRDRY	3.87
EASNCFAIRHFENKFAVETLICLDEGECTFKLKR	3.92
EASNCFAIRHFENKFAVETLICLDGEETGHLVAV	inactive
EASNCFAIRHFENKFAVETLICLDGMVWE	inactive
EASNCFAIRHFENKFAVETLICLDGWPTMFDVAS	inactive
EASNCFAIRHFENKFAVETLICLDMHVNSMIMPT	6.83
EASNCFAIRHFENKFAVETLICLDPLTCAPCNMW	4.46
EASNCFAIRHFENKFAVETLICLDRKDCYETLCS	inactive
EASNCFAIRHFENKFAVETLICLDSFGRIWTQKA	3.41
EASNCFAIRHFENKFAVETLICLDSMIEDEARRQ	inactive
